Assay results taken from PubChem BioAssay AID1454 (National Center for Advancing Translational Sciences (NCATS), 2008).
About 550 (0.42%) of roughly 130,000 compounds were called active. Not shown: some 4% with an inconclusive outcome. Calls follow the shape of the dose curve; as a rule, active = well fitted inhibition curve with a large enough effect; inconclusive = small, poorly fitted or top-dose-only effect, or effect the other way; inactive = flat fitted curve, though single readings scatter. The entries are a selection whose mix differs from that of the whole data set.

assay: qHTS Assay for Inhibitors of the ERK Signaling Pathway using a Homogeneous Screening Assay; Stimulation with EGF; details: HEK293-V1b, EGF-stimulated phospho-ERK AlphaScreen; activity change, negative = inhibition: at the top concentration; also: nearly all actives have a fitted effect of over 55% in size;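 as to activity change, negative = inhibition: plate controls were stimulated vehicle wells for no effect and unstimulated vehicle basal for full effect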
In short: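 HEK293 cells stably expressing V1b receptor, serum-reduced (1% FBS) overnight, pretreated 30 min with compound, then stimulated 5 min with 25 nM EGF; phospho-ERK detected by AlphaScreen SureFire. AC50 from Hill fits, normalized to DMSO and EGF.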
Potency is read from the fitted curve at half-maximal effect.

SMILES	activity change, negative = inhibition	Potency
COC(=O)c1cccc(C23CC4(C2)[C@H](CN(Cc2cccnc2)[C@@H]4c2ccccc2)C3c2ccccc2)c1 (some centres not stated)	inactive: -3.86% [at 57.5 µM]	–
O=C(NNc1nc2cc3c(cc2s1)OCO3)c1cccc(F)c1	–	active: 17.8 µM
Oc1cc2c(c(Cl)c1O)CCNC[C@H]2c1ccccc1	inactive: -16.3%	–
CCCCC/C=C\CC(O)/C=C/c1cccc(CC(O)CCCCO)n1 (configuration not stated)	–	inactive
COc1cc(/C=C2/SC(=S)N(CC(=O)Nc3cccnc3)C2=O)cc(OC)c1OC	inactive: 7.95%	–
O=C1NCN(c2ccccc2)C12CCN(CCCC(c1ccc(F)cc1)c1ccc(F)cc1)CC2	–	inactive
Nc1ncnc2c1ncn2[C@@H]1O[C@H](CO)[C@H](O)[C@H]1O	inactive: 16.3%	–
CCN(CC)C[C@@H]1CCCCN1CC(=O)N1c2ccccc2C(=O)Nc2cccnc21	inactive: -16.7%	–
N#CC(=C=[N-])c1nc2ccccc2nc1-[n+]1cccc(NC(=O)c2ccccc2)c1	inactive: 4.84% [at 57.5 µM]	–
CCCCCCCC/C=C\CCCCCCCC(=O)NCCc1ccc(O)c(O)c1	inactive: -12.3%	–
COc1ccc(C2CC(=O)c3c(O)cc(O)cc3O2)cc1O (configuration not stated)	inactive: 24%	–
CCN1C(=O)/C(=C/C2=Cc3ccccc3OC2C)SC1=S (configuration not stated)	–	active: 15.8 µM
O=C1NN(c2ccccc2)C(=O)/C1=C/c1ccc(Sc2ccc(Cl)cc2)o1	–	active: 28.2 µM
Cc1cccc(CN2CCN(C(c3ccccc3)c3ccc(Cl)cc3)CC2)c1 (configuration not stated)	inactive: 13.6%	–
CC(=O)OC1c2c(ccc3ccc(=O)oc23)OC(C)(C)C1OC(=O)CC(C)C (configuration not stated)	inactive: 17.1%	–
COc1ccccc1NS(=O)(=O)c1ccc(N/N=C/c2c(C)nn(-c3ccccc3)c2N2CCCC2)c([N+](=O)[O-])c1	–	active: 12.6 µM
O=C1CCc2cc(OCCCCc3nnnn3C3CCCCC3)ccc2N1	–	inactive
C=CS(=O)(=O)c1ccc(Oc2ccc(S(=O)(=O)C=C)cc2)cc1	–	active: 12.6 µM
O=C(/C=C\c1ccc(-c2cccc([N+](=O)[O-])c2)o1)N1CCOCC1	inactive: 1.97%	–
C=C1C(=O)C=C2CN(C(=O)c3ccccc3)[C@@](Cc3ccc(F)cc3)(C(=O)OC)[C@@H]12	–	active: 22.4 µM
O=C(Nc1cccnc1)c1ccc(Cl)c(S(=O)(=O)N2CCc3ccccc32)c1	–	active: 25.1 µM
O=C1N(c2ccccc2)c2ccccc2C1(Cc1ccncc1)Cc1ccncc1	–	inactive
CCN1C(c2ccccc2)=C(c2ccccc2)S/C1=C/C=C1\SC(=S)N(C)C1=O	–	active: 3.16 µM
COc1ccc(-c2nn(-c3ccccc3)cc2/C=N/N=C(N)N)cc1OC	–	active: 25.1 µM

SMILES	activity change, negative = inhibition	Potency
Cc1ncc([N+](=O)[O-])n1CCO	inactive: -1.6%	–
CCOC(=O)/C(C#N)=C1/C(=O)N(Cc2ccccc2)c2ccccc21	inactive: 12%	–
Cc1occc1C(=O)N/N=C/C(Br)=C/c1ccccc1	inactive: -1.01%	–
O=C(CSc1nc2ccccc2[nH]1)N/N=C/C=C/c1ccccc1[N+](=O)[O-]	inactive: 9.06%	–
O=c1c(O)cccc2cc(O)c(O)c(O)c12	inactive: -1.35% [at 57.5 µM]	–
CSc1ccc2c(c1)N(CC[C@H]1CCCCN1C)c1ccccc1S2	inactive: -6.93% [at 25.7 µM]	–
O=C(CCCN1CC=C(n2c(=O)[nH]c3ccccc32)CC1)c1ccc(F)cc1	–	inactive
OCCN1CCN(CCCN2c3ccccc3Sc3ccc(Cl)cc32)CC1	inactive: 8.5% [at 25.7 µM]	–
CC(=O)Oc1cccc2c1C(=O)c1c(OC(C)=O)cc(C(=O)O)cc1C2=O	inactive: -0.776%	–
CN(C)CCC[C@@]1(c2ccc(F)cc2)OCc2cc(C#N)ccc21	–	inactive
CCN(CC)CCOc1ccc(/C(=C(\Cl)c2ccccc2)c2ccccc2)cc1	inactive: -13.3% [at 25.7 µM]	–
Cc1nn(CC(=O)NCc2cc3ccccc3[nH]2)c(C)c1[N+](=O)[O-]	–	active: 14.1 µM
CC1=C(C(=O)OCc2ccccc2)C(c2ccc(C(C)(C)C)cc2)NC(=O)N1CCCCCC(=O)O (configuration not stated)	inactive: -2.19%	–
COc1ccc(-c2csc(NC(=O)c3ccoc3C)n2)cc1	–	active: 15.8 µM
COc1ccc(C(=O)OC(COc2ccccc2)Cn2ccnc2)cc1 (configuration not stated)	–	active: 7.08 µM
COC(=O)c1ccccc1NC(=O)COC(=O)c1ccccc1N=Nc1ccc(N(C)C)cc1	–	active: 14.1 µM
CC1OC(OCC2OC(Oc3c(-c4ccc(O)c(O)c4)oc4cc(O)cc(O)c4c3=O)C(O)C(O)C2O)C(O)C(O)C1O (configuration not stated)	inactive: 0.859%	–
CC(=O)Oc1c2c(c3c(c1CC=C(C)C)O[C@@]14C(=CC5CC1C(C)(C)OC4(C/C=C(\C)C(=O)O)C5=O)C3=O)OC(C)(CCC=C(C)C)C=C2 (some centres not stated)	–	active: 25.1 µM
Cc1ccc(Cl)c(Nc2ccccc2C(=O)O)c1Cl	–	inactive
CC(=O)O[C@H]1C[C@@]2(C)[C@H](C[C@@H](O)[C@H]3[C@@]4(C)CC[C@@H](O)[C@@H](C)[C@H]4CC[C@@]32C)C1=C(CCC=C(C)C)C(=O)O	inactive: 5.52% [at 25.7 µM]	–
CN1CCN(c2nc3cc(C(F)(F)F)ccc3n3cccc23)CC1	inactive: -2.99%	–
O=C(/C=C\c1ccco1)Nc1nc(-c2ccccc2)cs1	inactive: 18.5%	–
CN(C)c1ccc(/C=C2/C(=O)Nc3ccccc32)cc1	inactive: -2.04%	–
